Test results reported in PubChem BioAssay AID264 (DTP/NCI, 2004).
Records with an inconclusive call do not appear. Not every entry of the source has a single result; some have several. The other results are left out here. An entry can have further records. The values listed for one entry repeat one measurement in other runs, samples, wells, individuals or studies. Signs of the kind (2×) give the number of equal values in this list.

Test system: nude mice, LX-1 lung xenograft intrarenal, tumor weight T/C
Experiment: NCI In Vivo Anticancer Drug Screen. Data for tumor model Human Lung LX-1 Xenograft (intrarenal inoculation) in NU/NU Swiss (nude) mice
Conditions: endpoint: mean tumor weight change, higher = larger tumour
Method: The antitumor activity of compounds was measured in mice bearing transplantable tumors. Survival or tumor size were measured and the results are expressed as the measurement made in the treated group (T) divided by the measurement made in the vehicle treated control group (C). The tumor model used in this assay is Human Lung LX-1 Xenograft (intrarenal inoculation) in NU/NU Swiss (nude) mice

[1] = dose: 200.0 mg/kg/injection, schedule: Q01DX010 (sc), vehicle: saline with Tween-80
[2] = dose: 6.0 mg/kg/injection, schedule: Q04DX003 (sc), vehicle: saline
[3] = dose: 100.0 mg/kg/injection, schedule: Q01DX010 (sc), vehicle: saline with Tween-80
[4] = dose: 300.0 mg/kg/injection, schedule: Q04DX003 (sc), vehicle: water
[5] = dose: 100.0 mg/kg/injection, schedule: Q01DX010 (sc), vehicle: Klucel (hydroxypropylcellulose) (HPC)
[6] = dose: 50.0 mg/kg/injection, schedule: Q01DX010 (sc), vehicle: Klucel (hydroxypropylcellulose) (HPC)

COc1cc2cc(c1Cl)N(C)C(=O)CC(OC(=O)C(C)C)C1(C)OC1C(C)C1CC(O)(NC(=O)O1)C(OC)/C=C/C=C(C)C2 (stereo unspecified)
T/C (dose: 25.0 micrograms/kg/injection, schedule: Q01DX010 (sc), vehicle: saline + alcohol): 79 % of control and 121 % of control | T/C (dose: 50.0 micrograms/kg/injection, schedule: Q01DX010 (sc), vehicle: saline + alcohol): 25 % of control, 53 % of control, 104 % of control

Oc1ccc(SCc2ccc(NCc3ccccc3)cc2)cc1
T/C [1]: 67 % of control and 107 % of control

COc1cc2c(cc1O)N=C[C@@H]1CCC(O)N1C2=O (mixture of isomers)
T/C (dose: 8.0 mg/kg/injection, schedule: Q01DX010 (sc), vehicle: saline): -14 % of control, 65 % of control, 210 % of control | T/C (dose: 16.0 mg/kg/injection, schedule: Q01DX010 (sc), vehicle: saline): 76 % of control and 152 % of control

CCC1(O)CC2CN(CCc3c([nH]c4ccccc34)C(C(=O)OC)(c3cc4c(cc3OC)N(C)C3C(O)(C(=O)NCCSSCCNC(=O)C5(O)C(O)C6(CC)C=CCN7CCC8(c9cc(C%10(C(=O)OC)CC%11CN(CCc%12c%10[nH]c%10ccccc%12%10)CC(O)(CC)C%11)c(OC)cc9N(C)C58)C76)C(O)C5(CC)C=CCN6CCC43C65)C2)C1 (stereo unspecified)
T/C (dose: 3.0 mg/kg/injection, schedule: Q04DX003 (sc), vehicle: saline): 4 % of control and 58 % of control | T/C [2]: -40 % of control and 56 % of control

ClCC[N+]12CC[N+](CCCl)(CC1)C2
T/C [3]: 27 % of control and 96 % of control | T/C [1]: 35 % of control and 115 % of control | T/C [4]: 44 % of control and 113 % of control

C[C@H](N)C(=O)N[C@@H]1[C@H]2C(=C(O)C[C@@H](O)[C@@H]2O)C(=O)O[C@@H]1C
T/C (dose: 2400.0 mg/kg/injection, schedule: Q04DX003 (sc), vehicle: saline): 72 % of control and 111 % of control

COc1cccc2c1C(=O)c1c(O)c3c(c(O)c1C2=O)CC(O)(/C(C)=N/NC(=O)CCC(=O)N/N=C(\C)C1(O)Cc2c(O)c4c(c(O)c2C(OC2CC(N)C(O)C(C)O2)C1)C(=O)c1c(OC)cccc1C4=O)CC3OC1CC(N)C(O)C(C)O1 (stereo unspecified)
T/C (dose: 25.0 mg/kg/injection, schedule: Q01DX010 (sc), vehicle: water): 8 % of control and 34 % of control

CNC(=O)OCc1c(COC(=O)NC)c(C)n(-c2ccc(OC)cc2)c1C
T/C [5]: 2 % of control, 32 % of control, 58 % of control | T/C (dose: 100.0 mg/kg/injection, schedule: Q04DX003 (sc), vehicle: Klucel (hydroxypropylcellulose) (HPC)): 43 % of control and 94 % of control | T/C (dose: 200.0 mg/kg/injection, schedule: Q01DX010 (sc), vehicle: Klucel (hydroxypropylcellulose) (HPC)): 1 % of control, 3 % of control, 32 % of control | T/C (dose: 200.0 mg/kg/injection, schedule: Q04DX003 (sc), vehicle: Klucel (hydroxypropylcellulose) (HPC)): 25 % of control and 102 % of control | T/C (dose: 400.0 mg/kg/injection, schedule: Q01DX010 (sc), vehicle: Klucel (hydroxypropylcellulose) (HPC)): -59 % of control and 60 % of control | T/C (dose: 400.0 mg/kg/injection, schedule: Q04DX003 (sc), vehicle: Klucel (hydroxypropylcellulose) (HPC)): 44 % of control and 76 % of control

O=NN(CCCl)C(=O)NC1CCC(=O)NC1=O (stereo unspecified)
T/C (dose: 1.56 mg/kg/injection, schedule: Q01DX010 (sc), vehicle: saline with Tween-80): 44 % of control and 71 % of control | T/C (dose: 6.25 mg/kg/injection, schedule: Q01DX010 (sc), vehicle: saline with Tween-80): -100 % of control and 14 % of control

C/C(=C\c1ccccc1)[N+](=O)[O-]
T/C [6]: 101 % of control and 155 % of control

COC1OC(CO)C(O)C(NC(=O)N(C)N=O)C1O (stereo unspecified)
T/C (dose: 225.0 mg/kg/injection, schedule: Q04DX003 (sc), vehicle: saline): -80 % of control, 3 % of control, 8 % of control | T/C (dose: 450.0 mg/kg/injection, schedule: Q04DX003 (sc), vehicle: saline): -89 % of control, 1 % of control, 8 % of control

CC(C)(C)c1ccc(CN2CCN(C(c3ccccc3)c3ccc(Cl)cc3)CC2)cc1 (stereo unspecified)
T/C (dose: 300.0 mg/kg/injection, schedule: Q04DX003 (sc), vehicle: Klucel (hydroxypropylcellulose) (HPC)): 41 % of control and 72 % of control

Cc1ccc(S(=O)(=O)N/N=C/C(=O)O)cc1
T/C [5]: 38 % of control and 118 % of control

CNC=O
T/C (dose: 800.0 mg/kg/injection, schedule: Q01DX010 (sc), vehicle: saline): -50 % of control and -10 % of control

CO[C@@]12[C@H](COC(N)=O)C3=C(C(=O)C(C)=C(N)C3=O)N1C[C@@H]1N[C@@H]12
T/C (dose: 2.5 mg/kg/injection, schedule: Q04DX003 (sc), vehicle: saline): -75 % of control, 17 % of control, 26 % of control | T/C (dose: 5.0 mg/kg/injection, schedule: Q04DX003 (sc), vehicle: saline): -100 % of control, -78 % of control, 17 % of control | T/C [2]: -70 % of control and 1 % of control (2×)

c1ccc([P+](c2ccccc2)(c2ccccc2)c2ccccc2)cc1
T/C (dose: 20.0 mg/kg/injection, schedule: Q04DX003 (sc), vehicle: saline): 48 % of control and 117 % of control

O=c1[nH]cc(F)c(=O)[nH]1
T/C (dose: 10.0 mg/kg/injection, schedule: Q01DX010 (sc), vehicle: saline): 64 % of control and 171 % of control

CC[C@@H](C)[C@@H]1NC(=O)C(NC(=O)C(CC(C)C)N(C)C(=O)C2CCCN2C(=O)C(C)O)C(C)OC(=O)C(Cc2ccc(OC)cc2)N(C)C(=O)C2CCCN2C(=O)C(CC(C)C)NC(=O)C(C)C(=O)C(C(C)C)OC(=O)C[C@H]1O (stereo partly specified)
T/C (dose: 150.0 micrograms/kg/injection, schedule: Q04DX003 (sc), vehicle: distilled water + alcohol): 19 % of control and 104 % of control | T/C (dose: 300.0 micrograms/kg/injection, schedule: Q04DX003 (sc), vehicle: distilled water + alcohol): 50 % of control and 92 % of control

COC1=C(N)C(=O)c2nc(-c3nc(C(=O)O)c(C)c(-c4ccc(OC)c(OC)c4O)c3N)ccc2C1=O
T/C (dose: 0.5 mg/kg/injection, schedule: Q01DX010 (sc), vehicle: saline): -71 % of control and -11 % of control

CC(=O)OCc1cc(=O)n(C)c2c3c4c(cc12)c(C)cc(=O)n4CO3
T/C [5]: 25 % of control and 84 % of control

CCCCCCCCCCCCCCCC(=O)Nc1ccn(C2OC(CO)C(O)C2O)c(=O)n1 (stereo unspecified)
T/C [4]: 7 % of control and 37 % of control | T/C (dose: 600.0 mg/kg/injection, schedule: Q04DX003 (sc), vehicle: water): -34 % of control, 20 % of control, 39 % of control | T/C (dose: 1200.0 mg/kg/injection, schedule: Q04DX003 (sc), vehicle: water): -24 % of control and 28 % of control

O=C(N/N=C\c1cc(Br)cc(Br)c1O)N/N=C/c1cc(Br)cc(Br)c1O
T/C [3]: 85 % of control and 257 % of control | T/C [1]: 56 % of control and 158 % of control | T/C (dose: 400.0 mg/kg/injection, schedule: Q01DX010 (sc), vehicle: saline with Tween-80): 49 % of control and 373 % of control

Cc1[nH]c(=O)[nH]c(=O)c1N(CCF)CCCl
T/C (dose: 10.0 mg/kg/injection, schedule: Q01DX010 (sc), vehicle: Klucel (hydroxypropylcellulose) (HPC)): 58 % of control and 87 % of control | T/C (dose: 20.0 mg/kg/injection, schedule: Q01DX010 (sc), vehicle: Klucel (hydroxypropylcellulose) (HPC)): 55 % of control, 70 % of control, 122 % of control

C=CCNc1ccc(C)cc1
T/C [6]: 69 % of control and 105 % of control

COc1cccc2c1C(=O)c1c(O)c3c(c(O)c1C2=O)C[C@@](O)(/C(C)=N/NC(=O)c1ccc(Cl)cc1)C[C@@H]3OC1CC(N)C(O)C(C)O1 (stereo partly specified)
T/C (dose: 12.0 mg/kg/injection, schedule: Q04DX003 (sc), vehicle: water): 18 % of control and 227 % of control | T/C (dose: 24.0 mg/kg/injection, schedule: Q04DX003 (sc), vehicle: water): 19 % of control and 87 % of control | T/C (dose: 48.0 mg/kg/injection, schedule: Q04DX003 (sc), vehicle: water): 3 % of control, 87 % of control, 224 % of control

CN1CCN(CCCN2c3ccccc3Sc3ccc(C(F)(F)F)cc32)CC1
T/C (dose: 25.0 mg/kg/injection, schedule: Q01DX010 (sc), vehicle: saline): 86 % of control and 188 % of control | T/C (dose: 200.0 mg/kg/injection, schedule: Q01DX010 (sc), vehicle: saline): 13 % of control, 62 % of control, 173 % of control

COC(C(=O)C(O)C(C)O)C1Cc2cc3cc(OC4CC(OC(C)=O)C(OC5CC(O)C(OC)C(C)O5)C(C)O4)cc(O)c3c(O)c2C(=O)C1OC1CC(OC2CC(OC3CC(C)(O)C(OC(=O)C(C)C)C(C)O3)C(O)C(C)O2)C(O)C(C)O1 (stereo unspecified)
T/C (dose: 1.0 mg/kg/injection, schedule: Q01DX010 (sc), vehicle: saline with Tween-80): 41 % of control, 70 % of control, 197 % of control | T/C (dose: 2.0 mg/kg/injection, schedule: Q01DX010 (sc), vehicle: saline with Tween-80): 10 % of control, 59 % of control, 64 % of control
